{"source": "PubChem BioAssay AID901", "about": "(National Center for Advancing Translational Sciences (NCATS), 2007)", "note": "Among all 120,000 compounds or so, fewer than 10 were called active. This list was built around the results that the source calls inconclusive (neither active nor inactive); the mix of calls is not that of the screen. Calls come from the whole dose curve; as a rule, active = well fitted curve in the direction sought with a large enough effect in the signal ratio (not every such curve was filed as active); inconclusive = small, poorly fitted or top-dose-only effect, or a change in a side signal; inactive = no such curve, though single readings can be large or run the other way; the % refers to the signal ratio. No potency is given beside an inconclusive call; the fits are too rough.", "data": [{"target": "Inositol monophosphatase 1 (Rattus norvegicus) (UniProt P97697)", "sequence (P97697 whole entry, looked up)": "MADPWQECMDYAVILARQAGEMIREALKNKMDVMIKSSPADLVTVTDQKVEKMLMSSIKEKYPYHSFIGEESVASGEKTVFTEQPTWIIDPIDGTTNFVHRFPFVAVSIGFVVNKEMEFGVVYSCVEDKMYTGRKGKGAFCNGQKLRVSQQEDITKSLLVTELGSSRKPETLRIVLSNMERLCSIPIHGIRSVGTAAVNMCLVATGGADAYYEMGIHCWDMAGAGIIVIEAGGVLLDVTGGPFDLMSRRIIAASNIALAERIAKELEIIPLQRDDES", "experiment": "qHTS Assay for Identifying the Cell-Membrane Permeable IMPase Inhibitors;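 note: cells stimulated with carbachol in lithium chloride buffer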", "settings": "CHO-M1 cells, HTRF TR-FRET ratio; Potency: IP1 accumulation unless noted; series mostly up to 46.1 µM", "text": "NCGC IMPase Assay Overview\nLithium has been widely used for the treatment of bipolar disorder. But lithium has a narrow therapeutic index and it can cause side effects such as thirst, weight gain, tremor, polyuria and memory problems. Although the mechanism for lithium action in treatment of bipolar disorder is still not fully understood, inhibition of inositol monophosphatase (IMPase) and the subsequent depletion of the inositol pool in living cells have been implicated as the primary therapeutic benefit of lithium therapy. Therefore, a selective IMPase inhibitor with reduced side effects might be a good drug candidate to replace lithium for the treatment of bipolar disorder. […]\nTo identify new cell-permeable IMPase inhibitors, we developed a cell-based IMPase assay in which the cytosolic IP1 is measured by a time-resolved fluorescence resonance energy transfer (TR-FRET) assay. […]\nA Chinese hamster ovary (CHO) cell line stably expressing the M1 receptor (CHO-M1) was obtained from ATCC and maintained in F-12 Kaighn's media (Invitrogen, Carlsbad, CA, 21127) supplemented with 10 % FBS, 100 units/ml penicillin, 100 ug/ml streptomycin and 250 ug/ml geneticin at 37C, 5% CO2 in a humidified atmosphere. […] AC50 values were determined from concentration-response data modeled with the standard Hill equation. […]\n(7) Detect the assay plate (Ex = 320, Em1 =665 and Em2 620) in a ViewLux plate reader. […]", "values": [{"smiles": "COc1cc(NS(=O)(=O)c2ccc(NC(=S)NC(=O)c3sc4ccccc4c3Cl)cc2)nc(OC)n1", "Potency": "inconclusive [inhibitor, partial curve]"}]}]}
